Patent publication US20260250410A1, “ANTIBODY AND USE THEREOF” (SICHUAN HUIYU PHARMACEUTICAL CO., LTD., priority 2022, published 2026)

Tested on: MDA-MB-231 cells
Assay: Endocytosis capacity of single B cell antibodies
Format: cell-based, human
Details: MDA-MB-231, 2 h at 37° C., antibody 1.5 μg/mL
Procedure: The endocytosis capacity of the antibody was detected for 0.5 to 2 hours. MDA-MB-231 cells were subjected to digestion with 5 mM EDTA, and plated at 2×10^4 cells/well after cell counting. After adding an Fc blocker (Human TruStain FcX™, Biolegend, 422302) and blocking at room temperature for 10 mins, a test antibody (1.5 μg/mL) was added, and the mixture was incubated at 4° C. for 30 mins, centrifuged, and washed twice with PBS+2% FBS, then the cells were divided into four equal portions (labeled as 0 h, 0.5 h, 1 h, 2 h), cells labeled as 0.5 h, 1 h, 2 h time points were added to 200 μL of cell culture medium, and cultured at 37° C. for 0.5 h, 1 h, 2 h, respectively. Cells at 0 h point were centrifuged, a secondary antibody (PE anti-human IgG Fc Antibody, Biolegend, 410708) was added, and the mixture was incubated at 4° C. for 30 mins, centrifuged, and washed twice with PBS+2% FBS, and detection was performed using a flow cytometer. After incubation of cells labeled as 0.5 h, 1 h, and 2 h points at 37° C. was completed, a secondary antibody was added (in the same steps as those at 0 h point), Geo-MFI of the signal under the same voltage was collected as detection signal at 0 h, and antibody internalization rate was calculated according to the following equation: Internalization (%)=(Geo-MFI (0 h)-Geo-MFI (2 h))/Geo-MFI (0 h)×100%.

| Molecule | Internalization MDA-MB-231 (%) |
| --- | --- |
| SB2: anti-CDCP1 antibody by single B cell technique; VH SEQ ID NO: 272, VL SEQ ID NO: 322 (antibody, V domains shown, SB2 heavy chain variable region; SB2 light chain variable region) VH: DVKLVESGGGLVKPGGSLKLSCAASGFTFSSYTMSWVRQTPEKRLEWVATISSGGIYTYYPDSVKGRFTISRDNAKDTLYLQMNSLRSEDTAVYYCSSPHSYAISYGYFDYWGQGTTLTVSS VL: DVVMTQTPLTLSITIGQPASISCRSSQSLLDIDGKTYLNWLLQRPGQSPKRLIYLVSELDSGVPDRFTGSGSGTDFTLRISGVEAEDLGIYYCWQGTHFPYTFGGGTKLEIK | 77.69% |
| SB3: anti-CDCP1 antibody by single B cell technique; VH SEQ ID NO: 273, VL SEQ ID NO: 323 (antibody, V domains shown, SB3 heavy chain variable region; SB3 light chain variable region) VH: DVKLVESGGGLVEPGGSLKLSCAASGFPFSSYTMSWVRQTPEKRLEWVATISSGGIYTYYPDSVKGRFTISRDNAKDTLYLQMSSLRSEDTAVYYCSSPHSYAISYGYFDYWGQGTTLTVSS VL: DVVMTQTPLTLSITIGQPASISCRSSQSLLDFDGKTYLNWLLQRPGQSPKRLIYLVSELDSGVPDRFTGSGSGTDFTLKISGVEAEDLGIYYCWQGTHFPFTFGGGTKLEIK | 78.20% |
